# Among all 46,000 compounds or so, about 60 (0.1%) were called active. Roughly 3% stayed inconclusive and do not appear here. Calls come from the whole dose curve; as a rule, active = well fitted inhibition curve with a large enough effect; inconclusive = small, poorly fitted or top-dose-only effect; inactive = no such curve, though single readings can be large or run the other way. The list shows a part of the results.
# Experiment: Primary qHTS assay for Inhibitors of ovarian cancer metastasis using an organotypic tumor microenvironment (TME) model.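 For Potency: count of GFP cancer cells still attached after washing and fixation.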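 For activity change, negative = inhibition: plate controls were DMSO wells for no effect and tomatine positive control wells for full effect.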 Note: nearly all actives have a fitted effect of over 65% in size.
# Details: SKOV3ip1-GFP adhesion/invasion on 3D omental model, fluorescence; series mostly up to 45.8 µM; activity change, negative = inhibition: at the top concentration
# How it was run: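 qHTS, 4-pt dose (0.36-46 umol/L); SKOV3ip1-GFP, 1,200 cells/well, no FBS; primary omental fibroblast/mesothelial co-culture 48 h pre-grown; 2 h RT + 16 h 37 C; PBS wash, 4% PFA; GFP count 488/509 nm.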
# Potency is the fitted concentration of half-maximal effect.
SMILES,"activity change, negative = inhibition",outcome,Potency
COc1ccccc1CNc1ccc(-c2nc(-c3ccccc3C)no2)cc1[N+](=O)[O-],inactive: -10.8%,–,–
CCc1ccccc1NC(=O)CSc1nc2n[nH]c(C)c2c(=N)n1-c1cccc(C)c1,inactive: 3.2%,–,–
COc1ccc(-c2nn(-c3ccc(F)cc3)c3c2cnc2cc4c(cc23)OCO4)cc1,inactive: -4.67%,–,–
Cn1c2c(c(=O)n(C)c1=O)C(c1ccccc1[N+](=O)[O-])CC(=O)N2 (stereo unspecified),inactive: -18.7%,–,–
CCCCC(=O)Nc1nnc(SCc2cc(=O)n3cc(C)ccc3n2)s1,–,inactive,–
CCOC(=O)c1nn2c(C(F)(F)F)cc(-c3ccc(C)cc3)nc2c1Cl,inactive: -0.336%,–,–
O=C(Nc1ccc(F)c(F)c1)c1cc(S(=O)(=O)NCc2ccc3c(c2)OCO3)ccc1F,–,inactive,–
Cc1ccn2c(Nc3ccc4c(c3)OCO4)c(-c3ccc(Cl)cc3)nc2c1,inactive: 0.109%,–,–
COc1cccc(CNC(=O)CN2CCCN(Cc3ccccc3)S2(=O)=O)c1,–,inactive,–
CC(C)(C)NCC(O)c1ccc(O)c(CO)c1 (stereo unspecified),inactive: -7.1%,–,–
COc1ccc(C2=NC3(CCCCCC3)N(CC(=O)Nc3cccc(Cl)c3)C2=O)cc1,inactive: -5.47%,–,–
COc1ccc(-c2c(C#N)c(SCC(=O)Nc3ccc(C)cc3)nc(C)c2C(=O)Nc2ccccc2)cc1,inactive: 5.92%,–,–
Cc1ccc(CNC(=O)CSc2nc(=O)n(Cc3ccco3)c3c2CCC3)cc1,inactive: 2.23%,–,–
CCOc1ccc(-c2nnc(SCC(=O)NC(C)CC)nc2-c2ccc(OCC)c(OC)c2)cc1OC (stereo unspecified),inactive: 4.03%,–,–
CCOc1ccc(-n2nc3ccc(NC(=O)c4cccc(F)c4)cc3n2)cc1,inactive: 0.873%,–,–
COc1ccc(Cl)cc1S(=O)(=O)N1CCN(CC(=O)Nc2ccccc2C(F)(F)F)CC1,inactive: -7.48%,–,–
CCSc1nc2c([nH]c3ccccc32)c(=O)n1-c1cccc(OC)c1,–,inactive,–
COc1cccc(NC(=O)Cn2c(=O)ccc3cc(S(=O)(=O)N4CCC(C)CC4)ccc32)c1,inactive: 14.2%,–,–
CCCCc1nn2c(=O)cc(COC(=O)c3ccco3)nc2s1,inactive: 88.5%,–,–
COc1ccc(-c2nc(CCNC(=O)c3c(F)cccc3Cl)cs2)cc1,–,inactive,–
CC1CCN(C(=O)Cn2cc(SCC(=O)Nc3ccccc3C(F)(F)F)c3ccccc32)CC1,inactive: -4.78%,–,–

SMILES,"activity change, negative = inhibition",outcome,Potency
COc1ccc(-c2nc3ccccc3o2)cc1NC(=O)c1ccc(-c2ccc(Br)cc2)o1,inactive: 3.45%,–,–
CC(=O)Nc1nonc1-c1nnc(SCC(=O)Nc2cccc(C)c2C)n1-c1ccccc1,inactive: -9.18%,–,–
COc1cc(C(=O)Nc2cccc(OCc3cc(=O)n4cc(C)sc4n3)c2)cc(OC)c1OC,inactive: -24.9%,–,–
Cc1nn(C)c(C)c1CCNC(=O)Nc1cccc(Cl)c1C,inactive: 10.5%,–,–
COc1ccc(Cn2cc(C(=O)c3ccc(F)cc3)c(=O)c3cc4c(cc32)OCCO4)cc1,inactive: -14.3%,–,–
CCOc1ccc(-n2c(=O)c3c(C)c(C)sc3n(CC(=O)Nc3ccc(CC)cc3)c2=O)cc1,inactive: -4.78%,–,–
CSc1ccc(CCNC(=O)Cn2ncn3c(cc4ccccc43)c2=O)cc1,inactive: 3.49%,–,–
CCN1C(=O)N(c2ccc(C(C)=O)cc2)S(=O)(=O)c2ccccc21,–,inactive,–
Cc1ccc(CN2C(=O)C(=O)c3cc(Br)cc(C)c32)cc1,–,–,active: 12.6 µM
CCC(C(=O)Nc1ccccc1)n1nc(-c2cc(C)ccc2C)ccc1=O (stereo unspecified),–,inactive,–
Cc1cccc(NC(=O)C2CCCN(S(=O)(=O)c3c(C)n[nH]c3C)C2)c1 (stereo unspecified),–,inactive,–
COc1ccc(Br)cc1CNC(=O)c1cnc2sc(N3CCCCCC3)nn2c1=O,inactive: -3.19%,–,–
CCN(C(=O)c1cc2c(=O)n(CC)c3ccccc3c2s1)c1cccc(C(F)(F)F)c1,–,inactive,–
COc1cccc(-n2c(-c3ccco3)nc3c(cnn3-c3ccc(Cl)cc3)c2=O)c1,inactive: 14.8%,–,–
CCn1c(C)c(C)c2cc(C(=O)N3CCN(c4cccc(C)c4C)CC3)ccc21,inactive: -15.6%,–,–
COc1cc(CN(C(=O)COc2ccccc2Cl)c2ccccn2)cc(OC)c1OC,inactive: -0.981%,–,–
COc1cccc(N2C(=O)CSC23C(=O)N(CC(=O)Nc2cccc(Cl)c2)c2ccccc23)c1 (stereo unspecified),–,inactive,–
O=C(CSc1cn(CCNC(=O)c2ccccc2F)c2ccccc12)Nc1ccc(F)cc1,–,inactive,–
CN1CC(=O)N2C(Cc3c([nH]c4ccccc34)[C@H]2c2ccc3c(c2)OCO3)C1=O (stereo partly specified),inactive: -2.58%,–,–
CCC(CC)C(=O)N1CCc2cc(OC)c(OC)cc2C1COc1ccc(C(=O)OC)cc1 (stereo unspecified),–,inactive,–
COc1ccc(C)cc1NC(=O)CSc1nc(=O)[nH]c2c1CCCC2,–,inactive,–

SMILES,"activity change, negative = inhibition",outcome,Potency
CCC(=O)Nc1ccc2nc(SCc3ccccc3)sc2c1,inactive: 1.02%,–,–
O=S(=O)(c1ccc(Cl)cc1)c1nnn2c1nc(NCc1cccs1)c1sccc12,inactive: -4.65%,–,–
CCOc1ccc(-n2c(=O)c3c4c(sc3n(CC(=O)NC(C)CC)c2=O)CCC4)cc1 (stereo unspecified),inactive: 3.23%,–,–
CN(C)S(=O)(=O)N(CC(=O)NCCSCc1cccc(Cl)c1)c1ccccc1,inactive: 7.96%,–,–
CCOC(=O)c1ccc(N2C(=O)c3n[nH]c(-c4cccs4)c3C2c2cccc(OC)c2)cc1 (stereo unspecified),inactive: 1.38%,–,–
COc1ccc(CC(=O)Nc2cc(-c3nc4cccnc4s3)ccc2C)cc1,inactive: 12.6%,–,–
Cc1cc(C)cc(Nc2ncnc3onc(-c4ccc(F)cc4)c23)c1,inactive: 3.82%,–,–
Cc1ccc(Nc2c(-c3ccc(C)cc3)nc3ccc(C)cn23)cc1,inactive: -6.89%,–,–
CCc1ccc2oc(-c3cccc(NC(=O)C(C)(C)Oc4ccc(Br)cc4)c3)nc2c1,inactive: -7.57%,–,–
CCOc1ccccc1NC(=O)C(=O)c1cc(C)n(-c2ccc(F)cc2)c1C,inactive: -11.9%,–,–
CCOc1ccc(-n2cc(-c3ccccc3)c3c(N4CCC(C)CC4)ncnc32)cc1,inactive: 19.3%,–,–
CCS(=O)(=O)c1nc(S(=O)(=O)c2ccc(C)cc2)c(NC(C)c2ccccc2)s1 (stereo unspecified),inactive: -30.5%,–,–
COc1ccc(-c2nnc(Nc3ccc(OC)c(C(N)=O)c3)c3ccccc23)cc1,–,inactive,–
COc1ccc(Cl)cc1NC(=O)Cn1c(=O)n(CCCC(=O)NCCc2ccc(OC)c(OC)c2)c(=O)c2ccccc21,–,inactive,–
O=C(CCSCc1cccc(F)c1)NCc1ccccc1,–,inactive,–
COc1cccc(-n2c(SCC(=O)N3CCCc4ccccc43)nc3c([nH]c4ccccc43)c2=O)c1,inactive: -2.51%,–,–
COc1cc(NC(=O)NC(C)c2c(-n3cccc3)sc3c2CCN(C)C3)cc(OC)c1 (stereo unspecified),inactive: 0.369%,–,–
CCCOc1ccc(CNC(=O)Cn2cc3c(n2)-c2c(oc(C(=O)N4CCOCC4)c2C)CC3)cc1,inactive: -7.56%,–,–
CCc1ccc(S(=O)(=O)NCc2nc3cccnc3n2Cc2ccccc2Cl)cc1,inactive: 1.93%,–,–

# Source: PubChem BioAssay AID1963576 (National Center for Advancing Translational Sciences (NCATS), 2024)
